# Data from PubChem BioAssay AID624296 (National Center for Advancing Translational Sciences (NCATS), 2012).
# The whole screen tested about 350,000 compounds, of which about 9,900 (2.8%) were called active. Inconclusive results, whose numbers are uncertain, are shown with a selection of clear calls. Calls come from the whole dose curve; as a rule, active = well fitted activation curve with a large enough effect; inconclusive = small, poorly fitted or top-dose-only effect; inactive = no such curve, though single readings can be large or run the other way. Potencies of inconclusive entries are left out as doubtful fits.
# Test: A quantitative high throughput screen for small molecules that induce DNA re-replication in MCF 10a normal breast cells. For activity, positive = re-replication: % of control where 0% means no effect. Note: nearly all actives have a fitted effect of over 50% in size.
# Conditions: MCF 10A DNA re-replication, Hoechst nuclear intensity, 48 h; activity, positive = re-replication: at 46.1 µM (top of the series)
# Potency is the fitted concentration of half-maximal effect; tags give direction and shape of the fitted curve.
SMILES,Potency,"activity, positive = re-replication"
CC1CC(C)CN(CC(=O)NCCc2ccc(S(N)(=O)=O)cc2)C1 (stereo not drawn),"inconclusive [activator, partial curve, poor fit]",–
O=C1NCCN(Cc2ccc(-c3ccccc3)cc2)C1CC(=O)N1CCN(CCO)CC1 (stereo not drawn),–,inactive: 7.24%
C=Cn1nc(C)c2ccccc2c1=O,–,inactive: -2.48%
O=C(Nc1nnc(COc2ccc(F)cc2)s1)Nc1ccccc1F,"inconclusive [activator, partial curve, poor fit]",–
COc1ccc2c(CCNC(=O)/C=C/c3ccc(OC)c(OC)c3)c[nH]c2c1,"inconclusive [activator, single point]",–
Cc1ccc(CCN2CC(C(=O)NCCN3CCOCC3)CC2=O)cc1 (stereo not drawn),"inconclusive [activator, partial curve, poor fit]",–
COc1cc2nc(NC(=O)c3ccccc3)sc(=O)c2cc1OC,"inconclusive [activator, full curve, poor fit]",–
CC(C)CCNc1nc(N)c([N+](=O)[O-])c(NCCO)n1,"inconclusive [activator, single point]",–
Cc1ccc(-c2nn3cnnc3c3ccccc23)cc1,–,inactive: -19.3%
O=C(NC1CC1)c1nc2c(nnn2Cc2ccccc2Cl)c(=O)[nH]1,"inconclusive [activator, single point]",–
Brc1ccccc1CN1CCC(N2CCCCC2)CC1,"inconclusive [activator, single point]",–
O=C(Nc1ccc(NC(=O)c2cccs2)cc1)c1ccco1,"inconclusive [activator, single point]",–
O=C(Nc1c(F)cc(F)cc1Br)c1cc(S(=O)(=O)N2CCN(c3ccccn3)CC2)ccc1F,–,inactive: 2.04%
Cc1cc(O)ccc1N1C(=O)c2cccc3cc([N+](=O)[O-])cc(c23)C1=O,"inconclusive [activator, partial curve, poor fit]",–
CN1C(=O)CSc2ccc(NC(=O)N3CCc4ccccc43)cc21,"inconclusive [activator, single point]",–
CC(=O)Nc1ccc(S(=O)(=O)Nc2ccc(F)c([N+](=O)[O-])c2)cc1,"inconclusive [activator, full curve]",–
COc1ccc(OC)c(/C=C2\SC(=S)N(C(C(=O)O)c3ccccc3)C2=O)c1 (stereo not drawn),"inconclusive [activator, single point]",–
COc1ccc(-c2cc(C(=O)N/N=C(\C)c3cccnc3)c3ccccc3n2)c(OC)c1,"inconclusive [activator, partial curve, poor fit]",–
Cc1cc(OCC(=O)Nc2cnn(CCCC(=O)O)c2)ccc1Cl,–,inactive: 1.92%
Cc1cccc(C)c1NC(=O)C[n+]1cc(-c2ccccc2)n2c1CCC2,–,inactive: -1.46%
CNc1nc(-c2ccccn2)nnc1-c1ccccc1,"inconclusive [activator, single point]",–
Cc1cccc(C(=O)Nc2ccc(C(=O)/C=C/c3cccs3)cc2)c1,"inconclusive [activator, single point]",–
O=C(N/N=C/C1=C(N2CCOCC2)C(=C\c2ccccc2)/CC1)Nc1ccccc1,"inconclusive [activator, single point]",–

SMILES,Potency,"activity, positive = re-replication"
Cc1ccc(C(=O)OCN2C(=O)c3ccccc3C2=O)cc1S(=O)(=O)N1CCOCC1,–,inactive: 0.85%
CCSc1sccc1C1C(C#N)=C(N)N(c2cccnc2)C2=C1C(=O)CCC2 (stereo not drawn),"inconclusive [activator, partial curve, poor fit]",–
CC(C)(C)NCCC(O)c1cc(C(F)(F)F)nc2c(C(F)(F)F)cccc12 (stereo not drawn),–,inactive: 18.2%
CCN(CC)CCN1CCn2c3c(c4cc(C)ccc42)CCCC31 (stereo not drawn),active: 4.11 µM,–
Cc1cccc(OCC(=O)Nc2ccccc2N2CCCCC2)c1C,"inconclusive [activator, single point]",–
COc1ccc(Cn2nnnc2C(c2cccnc2)N2CCN(c3ccc(O)cc3)CC2)cc1 (stereo not drawn),"inconclusive [activator, single point]",–
CCCOc1ccc(C(F)(F)F)cc1NC(=O)C1CC(=O)N(Cc2ccco2)C1 (stereo not drawn),–,inactive: -0.854%
COc1ccc2[nH]c3c(c2c1)CCN1C(=O)C(CC(=O)NCCCN(C)C)C[C@H](C(=O)N2CCCCC2)[C@@]31CCc1ccccc1 (stereo partly drawn),"inconclusive [activator, single point]",–
CCOC(=O)/C(C#N)=C1/C=CN(c2ccc(C)cc2)C=N1,"inconclusive [activator, single point]",–
CC(=O)Nc1ccc(NC(=O)C(C)OC(=O)C(C)SCC(=O)Nc2ccc(C)cc2)cc1 (stereo not drawn),–,inactive: 0.295%
Cc1nn(C)c(C)c1N1C(=O)c2cccc3c(N)ccc(c23)C1=O,–,inactive: 13.4%
Cc1c(N=C2N=C(NC(=O)Nc3ccc(Cl)cc3)c3ccccc32)c(=O)n(-c2ccccc2)n1C,active: 16.4 µM,–
N#Cc1sc2nc(C3CC3)cc(-c3ccccc3)c2c1N,"inconclusive [activator, partial curve, poor fit]",–
O=C(Nc1nccs1)c1ccc(COc2ccccc2Cl)o1,"inconclusive [activator, single point]",–
COc1cc(-c2nc3ccccc3nc2-c2ccc(O)c(OC)c2)ccc1O,–,inactive: 0.837%
CCN1CCN(c2ccc(N3CCN(C(=O)c4ccc(Br)o4)CC3)nn2)CC1,"inconclusive [activator, partial curve, poor fit]",–
Cc1sc2ncnc(SC(C)C(=O)N3c4ccccc4Sc4ccccc43)c2c1C (stereo not drawn),"inconclusive [activator, partial curve, poor fit]",–
OCCNc1ncnc2c1c(-c1ccccc1)c(-c1ccccc1)n2Cc1ccco1,"inconclusive [activator, single point]",–
Cc1ccccc1C(=O)Nc1nc(SCc2ccc(Cl)cc2)n[nH]1,"inconclusive [activator, single point]",–
CCC(C)c1ccc2oc(-c3ccc(NC(=O)Cn4cnc5c(=O)n(C)c(=O)n(C)c54)cc3)nc2c1 (stereo not drawn),"inconclusive [activator, single point]",–
Cc1ccc(S(=O)(=O)CCC(=O)Nc2nnc(-c3ccc(F)cc3)o2)cc1,"inconclusive [activator, single point]",–
O=C(Nc1ccccc1)c1cn2ccccc2n1,–,inactive: 5.3%
COc1ccc(CCC(=O)N2CCN(S(=O)(=O)c3ccc(C)cc3)CC2)cc1,–,inactive: 9%

SMILES,Potency,"activity, positive = re-replication"
O=S(=O)(c1ccc(Cl)c(NC(=S)N/N=C/c2ccc(O)cc2)c1)N1CCOCC1,"inconclusive [activator, single point]",–
CCOC(=O)c1ccc(NC(=O)NC2CC3CCC(C2)N3)cc1 (stereo not drawn),"inconclusive [activator, full curve, poor fit]",–
N#CC1(NC(=O)CSc2nncn2-c2ccccc2F)CCCC1,–,inactive: -1.82%
CCOC(=O)C1C(=O)C=C(c2ccc(Br)cc2)CC1c1ccco1 (stereo not drawn),"inconclusive [activator, single point]",–
COc1ccc(C(=O)COC(=O)c2ccc3c(c2)OCO3)c(OC)c1,–,inactive: 4.64%
N#CCC(=O)Nc1ccc(C(=O)OC(C(=O)Nc2cc(C(F)(F)F)ccc2Cl)c2ccccc2)cc1 (stereo not drawn),"inconclusive [activator, single point]",–
CCOC(=O)c1c(-c2ccc(F)cc2)csc1NC(=O)CN1C(=O)NC2(CCCCC2C)C1=O (stereo not drawn),"inconclusive [activator, full curve, poor fit]",–
Cc1cc(C)n(CCNC(=O)c2cc(COc3ccc4ncccc4c3)on2)n1,–,inactive: -4.15%
CC(C)(C)c1ccc(OCC(=O)Nc2ccc(C(=O)Nc3ccccc3C(=O)O)cc2)cc1,active: 18.4 µM,–
COc1c(C)cc(Br)cc1C(=O)Nc1ccccc1C,active: 1.46 µM,–
CC(C)CC1Nc2ncnc(N3CCN(c4ccccn4)CC3)c2N(Cc2ccc(Cl)cc2)C1=O (stereo not drawn),–,inactive: 80.6%
NC(=S)NNc1cc(Cl)cc(Cl)c1,–,inactive: -2.06%
Cc1ccc(Nc2cc(=O)[nH]c(=O)[nH]2)cc1C,"inconclusive [activator, partial curve, poor fit]",–
CC(=O)SC1CC(=O)C=C2CCC3C4CCC(=O)OC4(C)CCC3C21C (stereo not drawn),"inconclusive [activator, partial curve, poor fit]",–
CC(=C\c1ccccc1)/C=C1/SC(=S)N(CCCC(=O)O)C1=O,"inconclusive [activator, single point]",–
Cc1ccc[n+](C(C)C(=O)c2ccc(-c3ccccc3)cc2)c1 (stereo not drawn),"inconclusive [activator, full curve, poor fit]",–
CCCN(CCC)CCCNC(=O)c1cc2c(=O)n(CC)c3ccccc3c2s1,"inconclusive [activator, partial curve, poor fit]",–
N#CC1(C#N)C(c2ccccc2)OC23CCCCC2C1(C#N)C(=N)O3 (stereo not drawn),"inconclusive [activator, partial curve, poor fit]",–
COc1cc(OC)c(S(=O)(=O)Nc2ccc(C(=O)O)cc2)cc1S(=O)(=O)Nc1ccc(C(=O)O)cc1,–,inactive: -1.59%
O=C(NCCc1ccc(Cl)cc1)c1ccc2nccnc2c1,"inconclusive [activator, single point]",–
CSc1ccc(S(=O)(=O)NCC(=O)OCC(=O)N2CC(C)CC(C)C2)cc1[N+](=O)[O-] (stereo not drawn),–,inactive: 20.7%
CCN(CC(=O)Nc1ccc(OC)cc1)C(=O)c1oc2c(Cl)cccc2c1C,–,inactive: 16.8%
